# The other results are listed elsewhere or left out.
# B1: Q9UKT9 (peptide)
# chain: FRCEICGACFTQKGNLLRHIKL
# B2: Q9UKT9 (peptide)
# chain: FGCPQCGATFTQKGNLLRHIKL
# B3: Q9UKT9 (peptide)
# chain: FKCPQCGASFTQKGNLLRHIKL
# B4: Q9UKT9 (peptide)
# chain: FSCDQCGAWFTQKGNLLRHIKL
# B5: Q9UKT9 (peptide)
# chain: LKCNQCGFDCTQKGNLLRHIKL
# B6: Q9UKT9 (peptide)
# chain: FRCEVCGAPFTQKGNLLRHIKL
# B7: Q9UKT9 (peptide)
# chain: FCCEQCGAWFTQKGNLLRHIKL
# B8: Q9UKT9 (peptide)
# chain: FICPICGAQFTQKGNLLRHIKL
# B9: Q9UKT9 (peptide)
# chain: FHCEVCGACFTQKGNLLRHIKL
# B10: Q9UKT9 (peptide)
# chain: FCCNVCGASFTQKGNLLRHIKL
# B11: Q9UKT9 (peptide)
# chain: FRCPVCGAYFTQKGNLLRHIKL
# B12: Q9UKT9 (peptide)
# chain: FHCNQCGRDFTQKGNLLRHIKL
# B13: Q9UKT9 (peptide)
# chain: FYCPICGHYFTQKGNLLRHIKL
# B14: Q9UKT9 (peptide)
# chain: FCCPVCGALFTQKGNLLRHIKL
# B15: Q9UKT9 (peptide)
# chain: FTCPQCGATFTQKGNLLRHIKL
# B16: Q9UKT9 (peptide)
# chain: FACEICGHFFTQKGNLLRHIKL
# B17: Q9UKT9 (peptide)
# chain: FICPICGHVFTQKGNLLRHIKL
# B18: Q9UKT9 (peptide)
# chain: FKCNQCGHTFTQKGNLLRHIKL
# B19: Q9UKT9 (peptide)
# chain: FHCSVCGHFFTQKGNLLRHIKL
# B20: Q9UKT9 (peptide)
# chain: FFCEQCGAGFTQKGNLLRHIKL
# B21: Q9UKT9 (peptide)
# chain: FICEICGHAFTQKGNLLRHIKL
# B22: Q9UKT9 (peptide)
# chain: FMCPQCGAAFTQKGNLLRHIKL
# B23: Q9UKT9 (peptide)
# chain: FECDVCGAYFTQKGNLLRHIKL
# B24: Q9UKT9 (peptide)
# chain: FYCNQCGHQFTQKGNLLRHIKL
# B25: Q9UKT9 (peptide)
# chain: FACPQCGASFTQKGNLLRHIKL
# B26: Q9UKT9 (peptide)
# chain: FYCEICGHCFTQKGNLLRHIKL
# B27: Q9UKT9 (peptide)
# chain: FHCPICGRDFTQKGNLLRHIKL
# B28: Q9UKT9 (peptide)
# chain: FICNQCGRTFTQKGNLLRHIKL
# B29: Q9UKT9 (peptide)
# chain: FWCDQCGAFFTQKGNLLRHIKL
# B30: Q9UKT9 (peptide)
# chain: FHCSVCGHLFTQKGNLLRHIKL
# B31: Q9UKT9 (peptide)
# chain: FICDVCGASFTQKGNLLRHIKL
# B32: Q9UKT9 (peptide)
# chain: FSCNVCGARFTQKGNLLRHIKL
# Molecular target: no compound (DMSO)
# Assay: log2 fold change of degron read counts, EGFP-low vs EGFP+ sorted cells; higher = lower degron-EGFP level without compound (poor expression or instability)
# Conditions: compound: DMSO control; 18 h
# 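Further: jurkat cells carrying a lentiviral library of mutant zinc finger degrons fused to EGFP plus mCherry, mCherry+ cells FACS sorted, degron abundance counted by next-generation sequencing.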
row,Sequence,log2 fold change of degron read counts
1,B1,-1.69
2,B2,-0.787
3,B3,-0.375
4,B4,-0.301
5,B5,-0.266
6,B6,-1.35
7,B7,0.227
8,B8,-0.0155
9,B9,-1.66
10,B10,-1.23
11,B11,1.08
12,B12,-1.39
13,B13,0.256
14,B14,-0.0431
15,B15,-0.324
16,B16,0.206

row,Sequence,log2 fold change of degron read counts
1,B17,-0.117
2,B18,-0.178
3,B19,0.882
4,B20,-1.18
5,B21,-2.28
6,B22,-0.747
7,B23,-1.31
8,B24,0.244
9,B25,-3.94
10,B26,-0.305
11,B27,-0.573
12,B28,-1.1
13,B29,0.866
14,B30,0.443
15,B31,-2
16,B32,-0.245

# — the supplement of paper PMC12645437, “Orthogonal IMiD-Degron Pairs Induce Selective Protein Degradation in Cells” (ACS Chemical Biology, 2025)
